Laboratory results reported in the supplement of paper PMC11125491.
± gives the standard deviation of the averaged measurements. Growth of baker's yeast expressing single-residue variants of Pneumocystis jirovecii dihydrofolate reductase in 8.8 or 44 µM methotrexate (about 75% and 90% inhibition of the wild type). Selection coefficient per generation; 0 = like wild type, above 0 = less sensitive, below 0 = more sensitive or loss of function. No active / inactive call per row; the paper calls resistant above 0.220 (8.8 µM) or 0.243 (44 µM) together with a significance test. At 44 µM about 15% of codons end with one read or none, so the lowest values are floors (replicate rank correlation 0.74; 0.94 at 8.8 µM).

B1: UniProt A0EPZ9; numbered along this chain (parent)
chain: MDWQKSLTLIVALTLSRGIGLKNDLPWKLKSDMMFFSRVTSGLLVTRSTGQMNVVLMGRKTWESLPAHSRPLKNRINVVISRQEVLDLGGGAYHARSLDDALALLSQIYDSTSKIQLNRVFVIGGGELCKAAMEHSRLNRIIATVIHNEVDCDVFFPIDFRSSQSCLPWRKQDHSVLEAWVGSKVPQGKINENGFIYEFEMWIRDI

Variants of: B1
Test: selection coefficient against synonymous wild-type codons (log2 per generation); higher = faster growth than wild type
Details: with Saccharomyces cerevisiae carrying the variant on a plasmid
Description: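 Pooled growth of yeast carrying single-residue variants of P. jirovecii dihydrofolate reductase (own DFR1 gene intact), two passages at 30 °C, three cultures, sequenced before and after. Codons with under 15 starting reads are left out; codons of one change are averaged.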

| Variant | selection coefficient against synonymous wild-type codons (log2) (methotrexate 8.8 µM) | selection coefficient against synonymous wild-type codons (log2) (methotrexate 44 µM) |
| --- | --- | --- |
| G20Q | -0.425 ± 0.045 | -0.244 ± 0.17 |
| G20F | -0.43 ± 0.027 | -0.115 ± 0.11 |
| G20T | -0.444 ± 0.18 | -0.365 ± 0.039 |
| V154M | 0.0806 ± 0.017 | 0.0646 ± 0.016 |
| V154I | 0.14 ± 0.044 | -0.0451 ± 0.075 |
| V154S | 0.329 ± 0.025 | 0.328 ± 0.062 |
| G126R | 0.357 ± 0.033 | 0.517 ± 0.057 |
| H94M | -0.695 ± 0.13 | -0.236 ± 0.021 |
| S48W | -0.337 ± 0.1 | -0.205 ± 0.18 |
| I190S | -0.176 ± 0.061 | -0.258 ± 0.16 |
| S64F | -0.403 ± 0.14 | -0.197 ± 0.087 |
| D2A | 0.0175 ± 0.064 | 0.0794 ± 0.12 |
| T49N | -0.102 ± 0.091 | -0.0933 ± 0.14 |
| L13P | 0.672 ± 0.031 | 0.771 ± 0.054 |
| L13C | 0.31 ± 0.045 | 0.261 ± 0.043 |
| G42K | -0.0565 ± 0.033 | -0.0825 ± 0.12 |
| G42S | -0.0121 ± 0.037 | -0.035 ± 0.077 |
| I80K | -0.633 ± 0.057 | -0.174 ± 0.051 |
| L21H | 0.286 ± 0.053 | 0.231 ± 0.068 |
| L21D | 0.248 ± 0.01 | 0.221 ± 0.046 |

| Variant | selection coefficient against synonymous wild-type codons (log2) (methotrexate 8.8 µM) | selection coefficient against synonymous wild-type codons (log2) (methotrexate 44 µM) |
| --- | --- | --- |
| L21K | 0.103 ± 0.025 | 0.136 ± 0.045 |
| L21Y | -0.0502 ± 0.021 | -0.0193 ± 0.064 |
| L21E | 0.256 ± 0.023 | 0.263 ± 0.03 |
| I203D | 0.153 ± 0.042 | 0.151 ± 0.092 |
| I203Q | 0.149 ± 0.048 | 0.159 ± 0.062 |
| M34H | -0.0649 ± 0.13 | 0.0271 ± 0.17 |
| N23C | 0.0125 ± 0.062 | -0.101 ± 0.18 |
| I115M | -0.0703 ± 0.029 | -0.0196 ± 0.036 |
| A131Y | -0.338 ± 0.037 | -0.322 ± 0.099 |
| A131R | -0.23 ± 0.055 | -0.239 ± 0.12 |
| N74F | -0.525 ± 0.073 | -0.196 ± 0.051 |
| T8E | -0.132 ± 0.082 | -0.0181 ± 0.05 |
| D205I | -0.367 ± 0.05 | -0.415 ± 0.1 |
| E200L | 0.0799 ± 0.093 | 0.0321 ± 0.058 |
| E200S | 0.25 ± 0.045 | 0.227 ± 0.03 |
| M33Y | 0.134 ± 0.065 | 0.215 ± 0.052 |
| T112N | 0.127 ± 0.041 | 0.00214 ± 0.043 |
| T112E | 0.0776 ± 0.023 | 0.0883 ± 0.047 |
| Q107C | -0.132 ± 0.057 | -0.116 ± 0.054 |
| K114P | 0.0156 ± 0.013 | 0.0666 ± 0.15 |

| Variant | selection coefficient against synonymous wild-type codons (log2) (methotrexate 8.8 µM) | selection coefficient against synonymous wild-type codons (log2) (methotrexate 44 µM) |
| --- | --- | --- |
| K114L | -0.169 ± 0.052 | -0.114 ± 0.13 |
| K114S | -0.0451 ± 0.022 | 0.0355 ± 0.094 |
| V79Y | -0.505 ± 0.037 | -0.00391 ± 0.071 |
| A92Q | -0.505 ± 0.014 | -0.246 ± 0.06 |
| A92K | -0.539 ± 0.1 | -0.106 ± 0.062 |
| A92S | -0.358 ± 0.055 | -0.256 ± 0.068 |
| A92H | -0.572 ± 0.15 | -0.197 ± 0.061 |
| K130I | -0.341 ± 0.026 | -0.233 ± 0.17 |
| L98T | -0.731 ± 0.047 | -0.228 ± 0.036 |
| L98I | 0.136 ± 0.031 | 0.25 ± 0.031 |
| Q187A | -0.072 ± 0.048 | -0.0392 ± 0.081 |
| Q187F | -0.242 ± 0.13 | -0.199 ± 0.23 |
| K73T | -0.132 ± 0.081 | -0.0929 ± 0.044 |
| R38C | -0.0909 ± 0.0077 | -0.0167 ± 0.0081 |
| R38M | -0.0204 ± 0.028 | 0.00949 ± 0.027 |
| L128F | -0.363 ± 0.051 | -0.364 ± 0.11 |
| N191K | 0.0249 ± 0.053 | -0.0221 ± 0.051 |
| N191T | -0.0751 ± 0.049 | -0.17 ± 0.18 |
